# Results published in PubChem BioAssay AID1865 (National Center for Advancing Translational Sciences (NCATS), 2009).
# Hit rate of the full screen: of about 280,000 compounds, about 540 (0.19%) were called active. This list was built around the results that the source calls inconclusive (neither active nor inactive); the mix of calls is not that of the screen. The call rests on the fitted dose curve; in most records, active means well fitted activation curve with a large enough effect; inconclusive means small, poorly fitted or top-dose-only effect; inactive means flat fitted curve, though single readings scatter. A potency beside an inconclusive call is a rough fit, not a confirmed value.
# Test: Quantitative High-Throughput Screen for Regulators of Epigenetic Control; further: nearly all actives have a fitted effect of over 60% in size
# Details: murine LDR cells, GFP reporter derepression, 30 h; series mostly up to 53.9 µM
# Procedure, shortened: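 Reporter derepression read as number of fluorescent GFP-positive objects, 20-120 um in size, counted by laser-scanning cytometer. Mouse LDR line with an epigenetically silenced CMV-GFP locus; compound incubation 30 h, 37 C.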
# Potency means the concentration at half of the fitted maximal effect; tags describe the fitted curve by direction and shape.
row,Structure (SMILES),Potency
1,COc1ccc(Nc2ccc(N3C(=O)CCCC3=O)cc2[N+](=O)[O-])cc1OC,inactive
2,Cc1ccccc1OCC(=O)OCc1cc(=O)n2nc(C3CCCCC3)sc2n1,inactive
3,COc1ccc(NS(=O)(=O)c2cc([N+](=O)[O-])ccc2N/N=C\c2c(C)[nH]c3ccccc23)cc1,active: 10 µM
4,Cc1cc2nc(-c3ccc(SCC(=O)Nc4ccc5c(c4)OCCO5)nc3)[nH]c2cc1C,"inconclusive: 35.5 µM [activator, single point]"
5,COc1ccc([N+](=O)[O-])cc1CSc1ccccn1,inactive
6,Cc1ccc2[nH]c3c(=O)n(CCN4CCOCC4)cnc3c2c1,inactive
7,CC(C)(C)c1nnc(NC(=S)Nc2ccccc2)s1,"inconclusive: 31.6 µM [activator, single point]"
8,CCN(CC)CCNC(=O)CSc1c2c(nc3cc(Cl)ccc13)CCCC2,"inconclusive: 3.16 µM [activator, single point]"
9,O=C(/C=C/Nc1ccc(Nc2ccccc2)cc1)c1cccs1,"inconclusive: 20 µM [activator, single point]"
10,Nc1cccc2nc3ccccc3cc12,"inconclusive: 17.8 µM [activator, partial curve]"
11,COc1cc(CNC2CCCc3ccccc32)cc(OC)c1OC (stereo not given),inactive
12,CC(NC(=O)Cn1ncc(Cl)c(Cl)c1=O)C12CC3CC(CC(C3)C1)C2 (stereo not given),"inconclusive: 5.62 µM [activator, single point]"
13,O=C(O)/C=C/C(=O)Nc1ccc(NC(=O)c2ccccc2)c(Cl)c1,inactive
14,COc1ccc(OC)c(N/C(=N/C(=S)Nc2ccccc2)Nc2nc(C)cc(C)n2)c1,"inconclusive: 17.8 µM [activator, single point]"
15,CCOc1ccc(NC(=O)Cn2cc(C(=O)c3ccc(OC)cc3)c(=O)c3cc4c(cc32)OCO4)cc1,"inconclusive: 35.5 µM [activator, single point]"
16,COc1ccc(CCNC(=O)CN(C2CCCCC2)S(C)(=O)=O)cc1OC,inactive
17,C=CCc1c(C)nc(-c2ccccc2)nc1Nc1ccccc1O,"inconclusive: 25.1 µM [activator, single point]"
18,CCOc1ccccc1NC(=O)Cn1c(=O)n(Cc2ccccc2)c(=O)c2c1c1cc(C)ccc1n2C,"inconclusive: 35.5 µM [activator, single point]"
19,COc1nc(Nc2nc3ccccc3c(=O)[nH]2)nc2ccc(C)cc12,"inconclusive: 3.98 µM [activator, full curve]"
20,Cc1cccc(Nc2nn3c(=O)c4cc5c(cc4nc3s2)OCO5)c1,"inconclusive: 25.1 µM [activator, single point]"
21,O=c1oc2c(CN3CCCCC3)c(O)ccc2cc1-c1nc2ccccc2[nH]1,inactive
22,CCOc1ccc(CNC(=O)Nc2ccc3c(c2)N(C)C(=O)c2ccccc2S3)cc1,"inconclusive: 35.5 µM [activator, single point]"
23,O=C(CSc1ncc(CO)n1Cc1ccc(F)cc1)NCc1ccco1,"inconclusive: 15.8 µM [activator, single point]"
24,O=C(Nc1cnn(Cc2ccccc2)c1)c1cc2nc(-c3ccco3)cc(C(F)(F)F)n2n1,"inconclusive: 35.5 µM [activator, single point]"

row,Structure (SMILES),Potency
1,COc1cccc(NC(=O)c2sc3nc(C)c(C(=O)Nc4ccc(C)cc4C)c(-c4ccc(C)o4)c3c2N)c1,"inconclusive: 22.4 µM [activator, single point]"
2,CCOC(=O)c1ccc(NC(=O)c2nc[nH]c2C(=O)N[C@H](C)c2ccccc2)cc1,"inconclusive: 11.2 µM [activator, single point]"
3,O=[N+]([O-])c1ccc(-c2ccc(S(=O)(=O)NCCN3CCCC3)cc2)cc1,inactive
4,COc1cc2nc(=S)n3[nH]c(CCn4nc(C)cc4C)nc3c2cc1OC,active: 5.01 µM
5,Cc1cccc(C=Nc2ccc3c4c(cccc24)CC3)c1O,"inconclusive: 31.6 µM [activator, single point]"
6,COc1cccc(NC(=S)/C(=C(\[O-])c2ccc(C)c([N+](=O)[O-])c2)[n+]2ccccc2)c1,inactive
7,CCCS(=O)(=O)N1CC(=O)N(c2cc(C)cc(C)c2)C(C)(C(=O)NC2CCCCCC2)C1 (stereo not given),inactive
8,N#C/C(=C\c1ccc(N2CCCCC2)o1)C(=O)Nc1cccc(Br)c1,"inconclusive: 6.31 µM [activator, single point]"
9,N#Cc1ccc(/C=C\c2nccc3c2[nH]c2ccccc23)cc1,"inconclusive: 31.6 µM [activator, single point]"
10,Cc1sc(NC(=O)c2sc3nc4c(C)cccc4cc3c2N)c(C#N)c1C,"inconclusive: 35.5 µM [activator, single point]"
11,COc1c(Cl)cc(Cl)cc1/C=C(\C#N)c1nc(-c2ccc(Cl)cc2)cs1,"inconclusive: 25.1 µM [activator, single point]"
12,CN(C)c1cc(Cl)c2nonc2c1N,inactive
13,CCc1nnc(NC(=O)c2cccc(C(=O)Nc3nnc(CC)s3)n2)s1,active: 2.51 µM
14,COC(=O)C1(C(=O)OC)C/C=C\Cc2ccccc2[C@@H]1C[N+](=O)[O-],"inconclusive: 35.5 µM [activator, single point]"
15,O=C(c1ccco1)N1CCN(c2ccnc3cc(Cl)ccc23)CC1,"inconclusive: 20 µM [activator, single point]"
16,CCCNC(=O)c1nnsc1S(=O)c1ccc(Cl)cc1 (stereo not given),inactive
17,N#CC(C#N)=C1C=CC=CN1/C(=C\c1ccco1)C(=O)c1ccc(Br)cc1,"inconclusive: 0.631 µM [activator, single point]"
18,Cc1ccccc1-n1nnc2c(=O)oc3ccccc3c21,active: 15.8 µM
19,O=C(c1ccc(Br)o1)N1CCN(c2ccccc2F)CC1,"inconclusive: 0.794 µM [activator, partial curve]"
20,CC1(CCc2ccccc2)NC(=S)N(c2ccc(Cl)cc2)N1 (stereo not given),"inconclusive: 35.5 µM [activator, single point]"
21,O=c1c2ccccc2nc(/C=C/c2ccc(O)cc2)n1CCc1ccccc1,inactive
22,CCO/C=C1/C(=O)N(CC)c2ccccc21,"inconclusive: 12.6 µM [activator, partial curve]"
23,COc1ccc(Cn2c(N)c(C#N)c3nc4ccccc4nc32)cc1,"inconclusive: 31.6 µM [activator, single point]"
24,CCC(CC)C(=O)OCC(=O)NC12CC3CC(CC(C3)C1)C2,inactive

row,Structure (SMILES),Potency
1,Cc1ccc([N+](=O)[O-])cc1-c1ccc(/C=C(\C#N)c2[nH]nc(N)c2C#N)o1,inactive
2,Cc1ccc(-n2c3nc(=O)[nH]c(=O)c-3cc3cc([N+](=O)[O-])ccc32)cc1C,"inconclusive: 28.2 µM [activator, single point]"
3,CSc1nsc(/C=C/Nc2ccc(C)c(C)c2)c1C#N,active: 3.55 µM
4,CC(=O)c1c(N2CCN(c3ccc(F)cc3)CC2)nc(=S)n(Cc2ccccc2)c1C,"inconclusive: 12.6 µM [activator, single point]"
5,CCc1ccc(CNC(=O)C2CCCN(c3nn4cc(-c5ccc(F)cc5)nc4s3)C2)cc1 (stereo not given),"inconclusive: 35.5 µM [activator, single point]"
6,CCOC(=O)c1ccccc1NC(=O)N1CCCN(S(=O)(=O)c2ccc3c(ccn3CC)c2)CC1,inactive
7,COc1ccccc1/C=C/C=C1\Oc2c(ccc(O)c2CN2CCN(CCO)CC2)C1=O,inactive
8,CNC(=S)N/N=C(\C)c1ccc(N2CCOCC2)cc1,"inconclusive: 31.6 µM [activator, single point]"
9,Cc1ccc(-c2cc(C(=O)OCC(=O)N(C)C3CCS(=O)(=O)C3)c3ccccc3n2)c(C)c1 (stereo not given),inactive
10,COc1ccccc1-n1nc(-c2ccccc2)c2cnc3c(F)cc(F)cc3c21,"inconclusive: 35.5 µM [activator, single point]"
11,COc1cc2cc(/C=C/C(=O)c3ccco3)c(Cl)nc2cc1OC,"inconclusive: 28.2 µM [activator, single point]"
12,CS(=O)(=O)N1CCN(c2ccccc2NC(=O)c2ccc(-c3ccc(Cl)cc3Cl)o2)CC1,"inconclusive: 28.2 µM [activator, single point]"
13,CCN(CC)c1cc(C)c2cc(NC(=O)/C=C/c3ccccc3Cl)ccc2n1,"inconclusive: 35.5 µM [activator, single point]"
14,Cn1cccc1/C=C1\Cc2ccccc2C1=O,inactive
15,COc1ccc(OC/C(O)=C(\C#N)c2nc3ccccc3[nH]2)cc1,"inconclusive: 20 µM [activator, single point]"
16,COc1cc(/C=C/C(=O)c2ccc(C)c([N+](=O)[O-])c2)cc(OC)c1O,"inconclusive: 31.6 µM [activator, single point]"
17,COc1cccc(-n2c(SCC(=O)N3CCc4ccccc43)nc3c([nH]c4ccccc43)c2=O)c1,"inconclusive: 22.4 µM [activator, single point]"
18,COc1ccc(-c2nc(SCC(=O)Nc3ccccc3)c(-c3ccc(F)cc3)[nH]2)cc1OC,inactive
19,COC(=O)c1ccc(COc2ccccc2/C=C(\C#N)C(=O)Nc2c(C)cccc2C)cc1,"inconclusive: 22.4 µM [activator, single point]"
20,N#CSCC(=O)c1cccc2ccccc12,inactive
21,O=C(Cn1c(=O)n(-c2ccccc2)c(=O)c2ccc(C(=O)NCc3ccc4c(c3)OCO4)cc21)Nc1ccc(F)cc1,"inconclusive: 35.5 µM [activator, single point]"
22,COc1ccc(/C=C2\COc3ccccc3C2=O)cc1OC,"inconclusive: 28.2 µM [activator, single point]"
